Where two headings read alike, the source gives them in different places.
How the values were obtained:
[1] = test system: osteopontin (OPN) transcription; assay: Quantitative RT-PCR for OPN mRNA in mammary fibroblasts treated with vitamin D; type: cell-based, human; details: for activity in blocking vitamin D-induced OPN transcription in fibroblasts: natural agelastatins A-F examined
Experimental: Quantitative Reverse Transcription Polymerase Chain Reaction (RT-PCR) for OPN (FIGS. 3 and 8). Total RNA synthesis was carried out using the acid guanidinium thiocyanate-phenol-chloroform extraction method^25 per manufacturer protocol. First strand cDNA synthesis was performed using a version of Moloney murine leukemia virus reverse transcriptase per manufacturer protocol. Some mammary fibroblasts were treated with 48 hours of 10 nM vitamin D and AgA, AgE, or agelastatin derivative as indicated prior to assay. Quantitative PCR was performed in triplicate reactions in 20-μl volumes containing cDNA with cyanine dye and DNA polymerase master mix, using the following primer sets: glyceraldehyde 3-phosphate dehydrogenase (GAPDH), 5′-[…]-3′ (sense)(SEQ ID NO. 1), 5′-[…]-3′ (antisense)(SEQ ID NO. 2); OPN, 5′-[…]-3′ (sense)(SEQ ID NO. 5), 5′-[…]-3′ (antisense)(SEQ ID NO. 4). Real-time PCR parameters: 95° C. for 10 min; 95° C. for 30 s, 60° C. for 60 s, 72° C. for 60s for 40 cycles. Data analysis was done using a continuous fluorescence detector. The comparative threshold cycle (2^−ΔΔCT) value^26 was calculated following GAPDH normalization.
Effects of Agelastatin Derivatives (FIG. 8). Quantitative RT-PCR for OPN mRNA relative to GAPDH control from mammary fibroblasts treated with 48 hours of vitamin D, and AgA, AgE, or agelastatin derivatives as indicated. […] Detailed experimental methods are described above for FIG. 3.

[2] = test system: SUM1315 breast cancer cells; assay: 3D mixed cell spheroid co-culture invasion assay (projections per spheroid); type: cell-based, human; details: for number of projections per spheroid: Tiam1-deficient fibroblasts
Excerpt: Cancer cells were co-cultured in 3D media mixture with reduction mammary fibroblasts (RMF) with either wild-type retroviral hairpin control vector (C-RMF) or Tiam1 silencing hairpin vector (shTiam-RMF).
Spheroid Co-Culture Methods (FIG. 4). Three-dimensional co-cultures with SUM1315 cells and fibroblast lines were established in phenol-red free basement membrane matrix from the Engelbreth-Holm-Swarm mouse sarcoma (medium mixture as previously described)^9 Cultures had equal volumes of DMSO, AgA, or AgE incorporated into the matrix and culture medium at the indicated concentrations. Stock solutions (1 mM) were stored in DMSO at −20° C. and diluted in culture medium to indicated final concentrations.
Number of projections per spheroid was quantified using an Eclipse TS100 inverted tissue culture microscope and depicted as number of spheroids with indicated number of projections as percent of total spheroids. At least 100 spheroids were counted for each experimental condition. Results are representative of duplicate experiments. Cells were isolated from 3D co-cultures and cancer cells were separated from fibroblasts as described previously.

[3] = test system: SUM1315 breast cancer cells; assay: Transwell migration of post-co-culture SUM1315 cells; type: cell-based, human
Excerpt: Transwell Migration Assays (FIG. 5). Transwell migration of SUM1315 after isolation from mixed cell spheroid co-cultures with indicated mammary fibroblasts, with or without indicated agelastatin compound. Cultured cells were deprived of serum overnight, trypsinized, and plated at a density of 1×10^5/mL.

[4] = test system: osteopontin (OPN) transcription; details: at concentrations well below the cytotoxic range; cited from earlier work
[5] = test system: SUM1315 breast cancer cells; details: 3D assay system; low concentrations; cited from earlier work
[6] = Toxicity of AgA dosing in mice (dose-toxicity experiment); type: in vivo; details: 2.5 mg/kg/day; precluded further dosing; hunched posture, decreased mobility, fur ruffling, lack of weight gain (note 13)
[7] = test system: SUM1315 breast cancer cells; details: co-cultures with fibroblasts with up-regulated OPN treated, cells then implanted into mice, cited from earlier work
cell proliferation = details: 75-100 nM; cited from earlier work
[8] = two dimensional (2D) cultures, FIG. 3

O=C1N[C@H]2[C@@H]3NC(=O)c4ccc(Br)n4[C@@H]3C[C@@]2(O)N1 [AgD]
activity in blocking vitamin D-induced OPN transcription in fibroblasts [1]: possible negative influence

O=C1N[C@H]2[C@@H]3NC(=O)c4cc(Br)c(Br)n4[C@@H]3C[C@@]2(O)N1 [AgF]
activity in blocking vitamin D-induced OPN transcription in fibroblasts [1]: possible negative influence

CN1C(=O)N[C@H]2[C@@H]3NC(=O)c4ccc(Br)n4[C@@H]3C[C@]21O [AgA (1), (−)-agelastatin A]
number of projections per spheroid ([2]; 75-nM concentration, FIG. 4 column 6): decreases the number of projections to the baseline number
transwell migration of PCC cells exposed to Tiam1-deficient fibroblasts ([3]; 75-nM concentration in the co-cultures, FIG. 5 column 6): blocked
vitamin D-induced transcription of osteopontin (OPN) in mammary fibroblasts [4]: inhibit vitamin D-induced transcription of osteopontin (OPN)
effects of up-regulated fibroblast OPN on cancer cell adhesion, invasion, and cancer stem cell populations [5]: abrogates the effects of up-regulated fibroblast OPN
toxicity on direct dosing of mice [6]: toxicity in the animals within three to four weeks
induction of osteopontin transcription ([1]; induced by cancer cell secreted factors as well as vitamin D): can inhibit the induction of osteopontin transcription
activity in blocking vitamin D-induced OPN transcription in fibroblasts [1]: had the desired activity
lung metastasis of cancer cells after treatment of the co-cultures [7]: completely blocked
lung metastasis of cancer cells after treatment of the co-cultures ([7]; listed as AgA): prevents subsequent lung metastasis
assay concentrations relative to cytotoxic range in cell culture (cell proliferation): far below cytotoxic range

CO[C@@]12C[C@@H]3[C@@H](NC(=O)c4ccc(Br)n43)[C@@H]1NC(=O)N2C [AgE (5), (−)-agelastatin E]
number of projections per spheroid ([2]; 25-nM concentration, FIG. 4 column 7): partially restores the number of projections toward baseline
number of projections per spheroid ([2]; 50-nM concentration, FIG. 4 column 8): decreases the number of projections to below the baseline condition
potency in decreasing the invasiveness induced by Tiam1-deficient fibroblasts ([2]; AgE 25/50 nM versus AgA 75 nM): more potent than AgA (1)
transwell migration of PCC cells exposed to Tiam1-deficient fibroblasts ([3]; 25-nM concentration, FIG. 5 column 7): decreased the migration
transwell migration of PCC cells exposed to Tiam1-deficient fibroblasts ([3]; 50-nM concentration, FIG. 5 column 8): decreasing the number of migrating cells below the baseline condition
activity in blocking vitamin D-induced OPN transcription in fibroblasts [1]: had the desired activity
potency in comparison to AgA (1) in blocking stimulated OPN transcription [1, 8]: increased potency
stimulated OPN transcription [1, 8]: consistently blocked stimulated OPN transcription

CN1C(=O)N[C@H]2[C@@H]3NC(=O)c4cc(Br)c(Br)n4[C@@H]3C[C@]21O [AgB, agelastatin B]
activity in blocking vitamin D-induced OPN transcription in fibroblasts [1]: possible negative influence

From US11932650B2, “Potent agelastatin derivatives as modulators for cancer invasion and metastasis” (Massachusetts Institute of Technology, priority 2017, dated 2024)
